Laboratory results published in the supplement of paper PMC7125110.
Variants at the background level are over-represented here.

B1: glmS ribozyme (parent)
chain: AUAAAAGCGCCAGAACUACAGAAAUGUAGUUGACGAGGAGGAGGUUUAUCGAAUUUUCGGCGGAUGCCUCCAAA

Key:
Conditions in all cases: with glucosamine-6-phosphate
glucosamine-6-phosphate [1] = variants of: B1; experiment: kcat; higher = faster cleavage; RNA array
In short: (§1)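 E. coli RNA polymerase transcribed barcoded ribozyme variants in situ on sequenced MiSeq chips, which were tracked via a hybridised Cy3 probe at 37 °C. Tiles were imaged over ~14 h after glucosamine-6-phosphate (40 μM to 10 mM) in HEPES/KCl/Mg(OAc)2 buffer was flowed in. Normalised per-tile medians were fit to one- or two-exponential decays for kobs, and kcat and KM came from weighted Michaelis–Menten fits.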

glucosamine-6-phosphate [2] = variants of: B1; experiment: self-cleavage kobs at 40 uM GlcN6P; higher = faster cleavage; RNA array
In short: as §1

glucosamine-6-phosphate [3] = variants of: B1; experiment: self-cleavage kobs at 10000 uM GlcN6P; higher = faster cleavage; RNA array
In short: as §1

glucosamine-6-phosphate [4] = variants of: B1; experiment: self-cleavage kobs at 640 uM GlcN6P; higher = faster cleavage; RNA array
In short: as §1

glucosamine-6-phosphate [5] = variants of: B1; experiment: self-cleavage kobs at 160 uM GlcN6P; higher = faster cleavage; RNA array
In short: as §1

glucosamine-6-phosphate [6] = variants of: B1; experiment: self-cleavage kobs at 2500 uM GlcN6P; higher = faster cleavage; RNA array
In short: as §1

| Variant | kcat (glucosamine-6-phosphate [1]) [s⁻¹] | self-cleavage kobs at 40 uM GlcN6P (glucosamine-6-phosphate [2]) [s⁻¹] | self-cleavage kobs at 10000 uM GlcN6P (glucosamine-6-phosphate [3]) [s⁻¹] | self-cleavage kobs at 640 uM GlcN6P (glucosamine-6-phosphate [4]) [s⁻¹] | self-cleavage kobs at 160 uM GlcN6P (glucosamine-6-phosphate [5]) [s⁻¹] | self-cleavage kobs at 2500 uM GlcN6P (glucosamine-6-phosphate [6]) [s⁻¹] |
| --- | --- | --- | --- | --- | --- | --- |
| U49A C61G | < 1e-05 |  |  |  |  |  |
| G51A C58U | < 1e-05 | < 1e-05 | < 1e-05 |  |  |  |
| G51A U56G | < 1e-05 |  |  | < 1e-05 |  |  |
| G51U C71U | < 1e-05 |  |  | < 1e-05 |  |  |
| G51U U55A | < 1e-05 |  |  |  | < 1e-05 |  |
| G51U U56A | < 1e-05 | < 1e-05 |  | < 1e-05 | < 1e-05 |  |
| A53C G62C | < 1e-05 |  |  |  | < 1e-05 |  |
| G59U G63A | < 1e-05 |  |  |  |  | < 1e-05 |
| G60A C71A | < 1e-05 | < 1e-05 |  |  |  |  |
| G60C | < 1e-05 | < 1e-05 |  |  | < 1e-05 | < 1e-05 |
| G63U A64C G66C | < 1e-05 |  | < 1e-05 |  |  |  |
| G63U C71A | < 1e-05 |  |  |  |  |  |
| U65C C68G | < 1e-05 | < 1e-05 | < 1e-05 | < 1e-05 |  |  |
| A4U C10A A48C G59U U65C |  | < 1e-05 |  | < 1e-05 |  | < 1e-05 |
| A6C A14U |  | < 1e-05 |  |  | < 1e-05 |  |
| A6C C10G A36G G37A U56A C70A |  | < 1e-05 | < 1e-05 |  |  |  |
| A6C G9C G13U C61G |  | < 1e-05 | < 1e-05 |  |  |  |
| A6C G29U |  | < 1e-05 |  |  | < 1e-05 |  |
| A6C G32U |  | < 1e-05 |  | < 1e-05 |  | < 1e-05 |
| A6C G32U G44C C68G |  | < 1e-05 | < 1e-05 |  |  | < 1e-05 |
| A6C G37C A39G G40U G41U |  | < 1e-05 |  | < 1e-05 | < 1e-05 | < 1e-05 |
| A6C G59C |  | < 1e-05 | < 1e-05 | < 1e-05 |  | < 1e-05 |
| A6C U65A |  | < 1e-05 |  |  | < 1e-05 |  |
| A6G A14C A53G C61U |  | < 1e-05 | < 1e-05 |  |  |  |
| A6G A14C U54G |  | < 1e-05 |  |  |  |  |
| A6G A15U G32U C34G G35A C50U C71A |  | < 1e-05 |  |  |  |  |

| Variant | kcat (glucosamine-6-phosphate [1]) [s⁻¹] | self-cleavage kobs at 40 uM GlcN6P (glucosamine-6-phosphate [2]) [s⁻¹] | self-cleavage kobs at 10000 uM GlcN6P (glucosamine-6-phosphate [3]) [s⁻¹] | self-cleavage kobs at 640 uM GlcN6P (glucosamine-6-phosphate [4]) [s⁻¹] | self-cleavage kobs at 160 uM GlcN6P (glucosamine-6-phosphate [5]) [s⁻¹] | self-cleavage kobs at 2500 uM GlcN6P (glucosamine-6-phosphate [6]) [s⁻¹] |
| --- | --- | --- | --- | --- | --- | --- |
| A6G A33G A48G A64U |  | < 1e-05 |  |  |  |  |
| A6G A42U A64G |  | < 1e-05 | < 1e-05 | < 1e-05 |  | < 1e-05 |
| A6G A48G |  | < 1e-05 | < 1e-05 | < 1e-05 | < 1e-05 | < 1e-05 |
| A6G C8G |  | < 1e-05 |  |  | < 1e-05 |  |
| A6G C8U G29C G44U U55G |  | < 1e-05 | < 1e-05 |  |  |  |
| A6G C10G |  | < 1e-05 | < 1e-05 | < 1e-05 | < 1e-05 | < 1e-05 |
| A6G C11G |  | < 1e-05 | < 1e-05 | < 1e-05 | < 1e-05 | < 1e-05 |
| A6G C16U G29C |  | < 1e-05 |  |  |  |  |
| A6G G9A C10A |  | < 1e-05 | < 1e-05 |  | < 1e-05 |  |
| A6G G29C A42G A48G U49G |  | < 1e-05 | < 1e-05 |  |  |  |
| A6G G29U G41C A42C A48C C61A C67G |  | < 1e-05 | < 1e-05 |  |  | < 1e-05 |
| A6G G35U A64C U69G |  | < 1e-05 | < 1e-05 | < 1e-05 |  |  |
| A6G G59A |  | < 1e-05 | < 1e-05 | < 1e-05 |  | < 1e-05 |
| A6G U31A U46G C68G |  | < 1e-05 | < 1e-05 |  |  |  |
| A6G U45A G60C |  | < 1e-05 | < 1e-05 |  |  |  |
| A6G U45G |  | < 1e-05 |  | < 1e-05 | < 1e-05 |  |
| A6G U54G U57C |  | < 1e-05 | < 1e-05 |  |  |  |
| A6U C8U |  | < 1e-05 |  |  |  |  |
| A6U C11U G29U A42U A48U A52C |  | < 1e-05 | < 1e-05 |  |  |  |
| A6U C16A U30G G38A U55A |  | < 1e-05 |  |  |  |  |
| A6U G9U |  | < 1e-05 |  | < 1e-05 | < 1e-05 | < 1e-05 |
| A6U G9U U45A C71A |  | < 1e-05 | < 1e-05 |  |  |  |
| A6U G13C G63U A64G |  | < 1e-05 |  |  |  |  |
| A6U G29U G38A C58A |  | < 1e-05 |  |  |  |  |
| A6U G37U U55A G62A |  | < 1e-05 |  |  |  |  |
